# According to paper PMC12820563:
# The other results are listed elsewhere or left out. The list includes weakly bound sequences.
# Biological target: T1, MBP-FoxP3dN (UniProt Q99JB6)
# T1 sequence: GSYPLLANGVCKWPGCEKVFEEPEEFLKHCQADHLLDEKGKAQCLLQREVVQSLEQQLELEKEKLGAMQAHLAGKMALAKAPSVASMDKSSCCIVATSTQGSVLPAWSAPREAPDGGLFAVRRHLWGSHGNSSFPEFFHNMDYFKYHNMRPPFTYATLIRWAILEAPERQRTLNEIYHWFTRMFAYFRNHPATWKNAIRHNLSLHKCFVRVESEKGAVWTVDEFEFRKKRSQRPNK
# Assay: PD-seq (MBP pull-down with sequencing)
# Conditions: 20 mM Tris-HCl pH 7.5, 100 mM NaCl, 1.5 mM MgCl2, 0.4 uM protein, 0.1 uM dsDNA library, 30 min, room temperature, amylose pull-down; high values mean tight binding; double strand, one strand shown
row,Sequence,binding signal (RPM ratio (pull-down/input))
1,GATGATTGTTCTCCCAGCTGATGAATTAACCAGGTCGAGTAAACAAATTTTCCTAATCTTTCTGTTCAAGCGCCATCTAC,0.14
2,GATGATTGTTCTCCCAGCTGATGAATTTATGTGTTCGAGTAAACAAATTTTCCTAATCTTTCTGTTCAAGCGCCATCTAC,4.15
3,GATGATTGTTCTCCCAGCTGATGAATTAGCCACGTCGAGTAAACAAATTTTCCTAATCTTTCTGTTCAAGCGCCATCTAC,0.654
4,GATGATTGTTCTCCCAGCTGATGAATTCTCAGCCTCGAGTAAACAAATTTTCCTAATCTTTCTGTTCAAGCGCCATCTAC,0.345
5,GATGATTGTTCTCCCAGCTGATGAATTCTTAAACTCGAGTAAACAAATTTTCCTAATCTTTCTGTTCAAGCGCCATCTAC,0.267
6,GATGATTGTTCTCCCAGCTGATGAATTATGTCATTCGAGTAAACAAATTTTCCTAATCTTTCTGTTCAAGCGCCATCTAC,4.63
7,GATGATTGTTCTCCCAGCTGATGAATTACCTTCCTCGAGTAAACAAATTTTCCTAATCTTTCTGTTCAAGCGCCATCTAC,0.308
8,GATGATTGTTCTCCCAGCTGATGAATTTCCTCTTTCGAGTAAACAAATTTTCCTAATCTTTCTGTTCAAGCGCCATCTAC,0.263
9,GATGATTGTTCTCCCAGCTGATGAATTATACACCTCGAGTAAACAAATTTTCCTAATCTTTCTGTTCAAGCGCCATCTAC,0.636
10,GATGATTGTTCTCCCAGCTGATGAATTTGGTTGATCGAGTAAACAAATTTTCCTAATCTTTCTGTTCAAGCGCCATCTAC,2.12
11,GATGATTGTTCTCCCAGCTGATGAATTTACCTCGTCGAGTAAACAAATTTTCCTAATCTTTCTGTTCAAGCGCCATCTAC,0.473
12,GATGATTGTTCTCCCAGCTGATGAATTCCACGTTTCGAGTAAACAAATTTTCCTAATCTTTCTGTTCAAGCGCCATCTAC,0.412
13,GATGATTGTTCTCCCAGCTGATGAATTGACCAAATCGAGTAAACAAATTTTCCTAATCTTTCTGTTCAAGCGCCATCTAC,0.281
14,GATGATTGTTCTCCCAGCTGATGAATTTACTCCCTCGAGTAAACAAATTTTCCTAATCTTTCTGTTCAAGCGCCATCTAC,0.462
15,GATGATTGTTCTCCCAGCTGATGAATTAGTCTCATCGAGTAAACAAATTTTCCTAATCTTTCTGTTCAAGCGCCATCTAC,0.661
16,GATGATTGTTCTCCCAGCTGATGAATTACCAGGTTCGAGTAAACAAATTTTCCTAATCTTTCTGTTCAAGCGCCATCTAC,0.252
17,GATGATTGTTCTCCCAGCTGATGAATTGGAACCTTCGAGTAAACAAATTTTCCTAATCTTTCTGTTCAAGCGCCATCTAC,0.23
18,GATGATTGTTCTCCCAGCTGATGAATTGCTCCGTTCGAGTAAACAAATTTTCCTAATCTTTCTGTTCAAGCGCCATCTAC,0.423
19,GATGATTGTTCTCCCAGCTGATGAATTTGTGCATTCGAGTAAACAAATTTTCCTAATCTTTCTGTTCAAGCGCCATCTAC,7.63
20,GATGATTGTTCTCCCAGCTGATGAATTATCTGAGTCGAGTAAACAAATTTTCCTAATCTTTCTGTTCAAGCGCCATCTAC,0.273
21,GATGATTGTTCTCCCAGCTGATGAATTTTGAAGCTCGAGTAAACAAATTTTCCTAATCTTTCTGTTCAAGCGCCATCTAC,0.372

row,Sequence,binding signal (RPM ratio (pull-down/input))
1,GATGATTGTTCTCCCAGCTGATGAATTTATTTAATCGAGTAAACAAATTTTCCTAATCTTTCTGTTCAAGCGCCATCTAC,2.19
2,GATGATTGTTCTCCCAGCTGATGAATTGATCCTTTCGAGTAAACAAATTTTCCTAATCTTTCTGTTCAAGCGCCATCTAC,0.264
3,GATGATTGTTCTCCCAGCTGATGAATTCTGGGGTTCGAGTAAACAAATTTTCCTAATCTTTCTGTTCAAGCGCCATCTAC,0.402
4,GATGATTGTTCTCCCAGCTGATGAATTGCGTCCTTCGAGTAAACAAATTTTCCTAATCTTTCTGTTCAAGCGCCATCTAC,1.24
5,GATGATTGTTCTCCCAGCTGATGAATTGCTGAACTCGAGTAAACAAATTTTCCTAATCTTTCTGTTCAAGCGCCATCTAC,0.42
6,GATGATTGTTCTCCCAGCTGATGAATTGAGATTATCGAGTAAACAAATTTTCCTAATCTTTCTGTTCAAGCGCCATCTAC,0.888
7,GATGATTGTTCTCCCAGCTGATGAATTCTTGATGTCGAGTAAACAAATTTTCCTAATCTTTCTGTTCAAGCGCCATCTAC,0.416
8,GATGATTGTTCTCCCAGCTGATGAATTGTCCCTATCGAGTAAACAAATTTTCCTAATCTTTCTGTTCAAGCGCCATCTAC,0.436
9,GATGATTGTTCTCCCAGCTGATGAATTAGCTGAGTCGAGTAAACAAATTTTCCTAATCTTTCTGTTCAAGCGCCATCTAC,0.268
10,GATGATTGTTCTCCCAGCTGATGAATTTGCGAAGTCGAGTAAACAAATTTTCCTAATCTTTCTGTTCAAGCGCCATCTAC,0.311
11,GATGATTGTTCTCCCAGCTGATGAATTGGTCTAATCGAGTAAACAAATTTTCCTAATCTTTCTGTTCAAGCGCCATCTAC,0.423
12,GATGATTGTTCTCCCAGCTGATGAATTTAGAGAATCGAGTAAACAAATTTTCCTAATCTTTCTGTTCAAGCGCCATCTAC,0.279
13,GATGATTGTTCTCCCAGCTGATGAATTTAACCGTTCGAGTAAACAAATTTTCCTAATCTTTCTGTTCAAGCGCCATCTAC,0.312
14,GATGATTGTTCTCCCAGCTGATGAATTCGCGAGATCGAGTAAACAAATTTTCCTAATCTTTCTGTTCAAGCGCCATCTAC,0.318
15,GATGATTGTTCTCCCAGCTGATGAATTATTCATGTCGAGTAAACAAATTTTCCTAATCTTTCTGTTCAAGCGCCATCTAC,0.412
16,GATGATTGTTCTCCCAGCTGATGAATTCTGTGAATCGAGTAAACAAATTTTCCTAATCTTTCTGTTCAAGCGCCATCTAC,0.477
17,GATGATTGTTCTCCCAGCTGATGAATTATCCATATCGAGTAAACAAATTTTCCTAATCTTTCTGTTCAAGCGCCATCTAC,0.316
18,GATGATTGTTCTCCCAGCTGATGAATTCGCACCATCGAGTAAACAAATTTTCCTAATCTTTCTGTTCAAGCGCCATCTAC,0.563
19,GATGATTGTTCTCCCAGCTGATGAATTGCAAATGTCGAGTAAACAAATTTTCCTAATCTTTCTGTTCAAGCGCCATCTAC,0.803
20,GATGATTGTTCTCCCAGCTGATGAATTTCTCCGATCGAGTAAACAAATTTTCCTAATCTTTCTGTTCAAGCGCCATCTAC,0.19
21,GATGATTGTTCTCCCAGCTGATGAATTTATACGGTCGAGTAAACAAATTTTCCTAATCTTTCTGTTCAAGCGCCATCTAC,0.494

row,Sequence,binding signal (RPM ratio (pull-down/input))
1,GATGATTGTTCTCCCAGCTGATGAATTCCTAGCGTCGAGTAAACAAATTTTCCTAATCTTTCTGTTCAAGCGCCATCTAC,0.41
2,GATGATTGTTCTCCCAGCTGATGAATTAGACATATCGAGTAAACAAATTTTCCTAATCTTTCTGTTCAAGCGCCATCTAC,0.566
3,GATGATTGTTCTCCCAGCTGATGAATTAGCAACCTCGAGTAAACAAATTTTCCTAATCTTTCTGTTCAAGCGCCATCTAC,1.78
4,GATGATTGTTCTCCCAGCTGATGAATTTTGGCCTTCGAGTAAACAAATTTTCCTAATCTTTCTGTTCAAGCGCCATCTAC,2.06
5,GATGATTGTTCTCCCAGCTGATGAATTCTGATCCTCGAGTAAACAAATTTTCCTAATCTTTCTGTTCAAGCGCCATCTAC,0.399
6,GATGATTGTTCTCCCAGCTGATGAATTTCGTATATCGAGTAAACAAATTTTCCTAATCTTTCTGTTCAAGCGCCATCTAC,2.22
7,GATGATTGTTCTCCCAGCTGATGAATTGTCGTGCTCGAGTAAACAAATTTTCCTAATCTTTCTGTTCAAGCGCCATCTAC,0.657
8,GATGATTGTTCTCCCAGCTGATGAATTCGATTACTCGAGTAAACAAATTTTCCTAATCTTTCTGTTCAAGCGCCATCTAC,3.98
9,GATGATTGTTCTCCCAGCTGATGAATTATCCTTCTCGAGTAAACAAATTTTCCTAATCTTTCTGTTCAAGCGCCATCTAC,0.295
10,GATGATTGTTCTCCCAGCTGATGAATTTACGATATCGAGTAAACAAATTTTCCTAATCTTTCTGTTCAAGCGCCATCTAC,0.664
11,GATGATTGTTCTCCCAGCTGATGAATTACTAATGTCGAGTAAACAAATTTTCCTAATCTTTCTGTTCAAGCGCCATCTAC,0.473
12,GATGATTGTTCTCCCAGCTGATGAATTGCAATGTTCGAGTAAACAAATTTTCCTAATCTTTCTGTTCAAGCGCCATCTAC,2.05
13,GATGATTGTTCTCCCAGCTGATGAATTCGTATCGTCGAGTAAACAAATTTTCCTAATCTTTCTGTTCAAGCGCCATCTAC,1.53
14,GATGATTGTTCTCCCAGCTGATGAATTACACTCATCGAGTAAACAAATTTTCCTAATCTTTCTGTTCAAGCGCCATCTAC,0.879
15,GATGATTGTTCTCCCAGCTGATGAATTCGGCCATTCGAGTAAACAAATTTTCCTAATCTTTCTGTTCAAGCGCCATCTAC,3.92
16,GATGATTGTTCTCCCAGCTGATGAATTATGGGCATCGAGTAAACAAATTTTCCTAATCTTTCTGTTCAAGCGCCATCTAC,0.941
17,GATGATTGTTCTCCCAGCTGATGAATTCTCGATCTCGAGTAAACAAATTTTCCTAATCTTTCTGTTCAAGCGCCATCTAC,0.255
18,GATGATTGTTCTCCCAGCTGATGAATTAGTCTTGTCGAGTAAACAAATTTTCCTAATCTTTCTGTTCAAGCGCCATCTAC,0.801
19,GATGATTGTTCTCCCAGCTGATGAATTGCCCCTCTCGAGTAAACAAATTTTCCTAATCTTTCTGTTCAAGCGCCATCTAC,0.499
20,GATGATTGTTCTCCCAGCTGATGAATTAATTGGTTCGAGTAAACAAATTTTCCTAATCTTTCTGTTCAAGCGCCATCTAC,3.13
21,GATGATTGTTCTCCCAGCTGATGAATTGGACTTGTCGAGTAAACAAATTTTCCTAATCTTTCTGTTCAAGCGCCATCTAC,0.449
